Experimental data as given in the supplement of paper PMC7826260.
Some of the results follow. Viral Rep nickase domains cut single-stranded DNA in vitro (3 µM enzyme, 1 h, 37 °C); shown is the middle of each 90-letter strand. Uncut reads are compared with the no-enzyme pool on a log2 scale; strong cutting gives strongly negative numbers. There is no active / inactive call. Shares of all reads are compared; values above 0 arise when much of the pool is cut.

Assays:
Test in all cases: uncleaved DNA left, log2 of reads against the no-enzyme library (log2 ratio); higher = less cleavage (more negative = more Rep cleavage of the k-mer); sequences stand for … in CTCGTCCG…ACCGGAGA
[1] = system: T1, Rep nickase domain of Muscovy duck circovirus
T1 sequence (Rep 1-111, printed without the tag): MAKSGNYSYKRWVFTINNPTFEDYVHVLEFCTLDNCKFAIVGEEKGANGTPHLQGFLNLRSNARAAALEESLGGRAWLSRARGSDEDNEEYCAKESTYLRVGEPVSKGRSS
Experimental: (§1)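 A pool of 90-nt single-stranded DNAs with seven random bases just before the constant AC of the nick site (name = the seven bases) was cut by 3 µM recombinant His6-SUMO-tagged Rep nickase domain (300 nM DNA, 50 mM HEPES pH 8.0, 50 mM NaCl, 1 mM MnCl2, 1 h, 37 °C, three replicates). Uncut DNA was amplified and sequenced.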

[2] = system: T2, Rep nickase domain of banana bunchy top virus
T2 sequence (Rep 1-94, printed without the tag): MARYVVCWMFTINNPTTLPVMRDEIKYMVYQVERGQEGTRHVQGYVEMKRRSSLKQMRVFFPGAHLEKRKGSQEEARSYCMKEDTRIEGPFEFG
Experimental: as §1

[3] = system: T3, Rep nickase domain of cabbage leaf curl virus
T3 sequence (Rep 1-116, printed without the tag): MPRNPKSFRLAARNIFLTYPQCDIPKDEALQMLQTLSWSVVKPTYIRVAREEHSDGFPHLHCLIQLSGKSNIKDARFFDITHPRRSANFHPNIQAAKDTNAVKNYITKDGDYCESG
Experimental: as §1

[4] = system: T4, Rep nickase domain of chickpea chlorotic dwarf virus
T4 sequence (Rep 1-124, printed without the tag): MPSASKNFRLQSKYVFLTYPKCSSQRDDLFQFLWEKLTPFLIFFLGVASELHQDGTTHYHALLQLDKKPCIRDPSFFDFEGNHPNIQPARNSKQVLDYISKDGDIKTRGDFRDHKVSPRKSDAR
Experimental: as §1

[5] = system: T5, Rep nickase domain of faba bean necrotic yellows virus
T5 sequence (Rep 1-98, printed without the tag): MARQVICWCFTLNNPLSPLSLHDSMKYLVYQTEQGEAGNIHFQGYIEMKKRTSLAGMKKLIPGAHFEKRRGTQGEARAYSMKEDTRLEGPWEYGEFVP
Experimental: as §1

[6] = system: T6, Rep nickase domain of maize striate mosaic virus
T6 sequence (Rep 1-117, printed without the tag): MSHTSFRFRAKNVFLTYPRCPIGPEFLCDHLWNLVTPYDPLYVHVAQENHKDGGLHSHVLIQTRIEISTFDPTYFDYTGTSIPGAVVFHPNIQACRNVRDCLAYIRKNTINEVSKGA
Experimental: as §1

[7] = system: T7, Rep nickase domain of porcine circovirus 2
T7 sequence (Rep 2-116, printed without the tag): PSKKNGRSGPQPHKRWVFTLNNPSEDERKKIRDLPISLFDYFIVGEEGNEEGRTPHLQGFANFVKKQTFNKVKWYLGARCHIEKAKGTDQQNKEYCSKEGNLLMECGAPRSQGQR
Experimental: as §1

[8] = system: T8, Rep nickase domain of tomato golden mosaic virus
T8 sequence (Rep 1-124, printed without the tag): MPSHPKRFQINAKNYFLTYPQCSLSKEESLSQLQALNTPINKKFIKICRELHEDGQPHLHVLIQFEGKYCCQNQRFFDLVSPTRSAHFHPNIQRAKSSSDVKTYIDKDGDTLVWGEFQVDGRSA
Experimental: as §1

[9] = system: T9, Rep nickase domain of tomato yellow leaf curl virus
T9 sequence (Rep 1-136, printed without the tag): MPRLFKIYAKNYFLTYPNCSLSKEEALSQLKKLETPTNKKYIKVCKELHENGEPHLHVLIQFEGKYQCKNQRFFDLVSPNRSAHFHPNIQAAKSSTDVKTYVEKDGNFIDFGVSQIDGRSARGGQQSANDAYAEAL
Experimental: as §1

[10] = system: T10, Rep nickase domain of wheat dwarf virus
T10 sequence (Rep 1-137, printed without the tag): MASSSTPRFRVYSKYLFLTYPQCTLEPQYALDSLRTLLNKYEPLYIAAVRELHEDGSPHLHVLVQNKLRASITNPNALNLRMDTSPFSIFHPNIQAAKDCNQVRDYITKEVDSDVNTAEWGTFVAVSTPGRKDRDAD
Experimental: as §1

| Sequence | uncleaved DNA left (log2) [1] | uncleaved DNA left (log2) [2] | uncleaved DNA left (log2) [3] | uncleaved DNA left (log2) [4] | uncleaved DNA left (log2) [5] | uncleaved DNA left (log2) [6] | uncleaved DNA left (log2) [7] | uncleaved DNA left (log2) [8] | uncleaved DNA left (log2) [9] | uncleaved DNA left (log2) [10] |
| --- | --- | --- | --- | --- | --- | --- | --- | --- | --- | --- |
| TTGGACC | -0.0684 | -0.0426 | 0.34 | 0.859 | 0.0281 | 0.556 | 0.0453 | -0.103 | -0.0327 | 0.0255 |
| TATACTT | -2.63 | -3.2 | -2.18 | -3.09 | -0.1 | 0.0166 | -3.5 | -0.29 | -0.201 | -0.288 |
| GCGACCT | 0.0637 | -0.0544 | 0.0185 | 0.413 | -0.0557 | 0.914 | -0.0443 | -0.0474 | -0.0563 | -0.0507 |
| GATGTAG | -0.101 | -0.243 | -0.799 | -0.76 | -0.0737 | -1.09 | -0.00979 | -0.0295 | -0.0251 | -0.163 |
| CACGGGA | 0.122 | 0.127 | 0.387 | 0.713 | 0.0691 | 0.716 | 0.0391 | 0.0232 | 0.0259 | 0.0415 |
| TTGTCGA | -0.122 | -0.204 | -0.928 | -0.646 | -0.127 | -1.17 | -0.158 | -0.243 | -0.155 | -0.196 |
| AATTATT | -3.85 | -4.43 | -4.01 | -3.93 | -3.88 | -2.6 | -4.64 | -3.59 | -0.15 | -3.71 |
| GGGCTCC | 0.00562 | -0.0649 | 0.337 | 1.12 | 0.0283 | 1.08 | 0.12 | -0.18 | -0.114 | 0.0249 |
| GACCTCT | 0.111 | 0.0526 | 0.188 | -0.649 | -0.0423 | 0.519 | 0.0587 | 0.14 | -0.0221 | 0.2 |
| ACTTGCC | 0.0466 | -0.00639 | -0.567 | -0.498 | 0.0557 | -0.929 | 0.0381 | -0.154 | -0.0873 | -0.0608 |
| CCCAAGG | -0.0511 | -0.03 | 0.36 | 1.11 | 0.0285 | 0.895 | 0.062 | 0.077 | -0.194 | 0.072 |
| CATGATC | 0.0238 | -0.0018 | -0.0614 | -0.233 | 0.0226 | -0.821 | 0.0221 | -0.0433 | 0.0526 | 0.000265 |
| TAGTCAG | -0.0147 | 0.0513 | -0.743 | -0.666 | 0.0674 | -1.21 | -0.883 | 0.121 | 0.0178 | -0.048 |
| ATCTCAG | -0.0656 | -0.123 | -0.767 | -0.679 | -0.0664 | -1.36 | 0.047 | -0.0542 | -0.0484 | -0.182 |
| AAGACGA | 0.134 | 0.0169 | 0.171 | 0.368 | 0.0794 | -0.175 | 0.168 | 0.06 | 0.115 | 0.0587 |
| AACGGAG | 0.124 | 0.0788 | 0.014 | 0.674 | -0.0095 | 0.038 | 0.204 | 0.0706 | 0.0376 | 0.116 |
| CCATCCG | -0.155 | -0.0205 | -0.794 | 0.304 | -0.0952 | -0.854 | 0.0441 | -0.119 | -0.0519 | -0.102 |
| TCTCTAC | 0.151 | -0.193 | 0.022 | -1.85 | 0.0273 | -0.37 | -0.00199 | -0.0321 | 0.00472 | -0.0526 |
| CCCCTTT | 0.0262 | 0.0222 | -0.112 | -1.97 | 0.0875 | -0.516 | -0.402 | -0.0622 | 0.0193 | 0.00546 |
| AAACCGT | 0.0254 | 0.00969 | -0.411 | -1.72 | 0.0806 | -0.865 | -0.0159 | 0.0743 | 0.0606 | -0.0862 |
| GACTACA | -0.0592 | -0.11 | 0.0596 | -1.47 | -0.0645 | 0.598 | -1.8 | -0.0877 | 0.0356 | -0.0241 |
| GACCGAA | 0.1 | 0.0233 | 0.0973 | 0.306 | -0.0932 | 0.342 | -0.0831 | 0.037 | 0.0145 | -0.0203 |
| AATAAAA | 0.0585 | 0.0567 | -0.0427 | -0.316 | 0.0555 | -0.657 | 0.118 | 0.165 | -0.0224 | 0.117 |
| CAATATT | -4.28 | -4.25 | -5.41 | -4.39 | -3.73 | -4.11 | -4.43 | -4.73 | -3.58 | -4.8 |
| CTGAACA | 0.0418 | -0.0785 | -0.0287 | -1.17 | 0.144 | -0.0965 | -0.0295 | -0.0107 | 0.146 | 0.0975 |
| TTTTTAC | -1.48 | 0.0296 | 0.066 | -1.63 | 0.0613 | -0.0883 | -0.891 | 0.013 | -0.0422 | -0.0217 |
| CCACTGG | -0.112 | -0.0851 | -0.188 | 0.0803 | -0.104 | -0.502 | 0.0551 | -0.045 | -0.0656 | -0.0104 |
| AACCGTA | -0.123 | -0.152 | -0.253 | -1.85 | -0.0309 | -1 | -0.336 | -0.123 | -0.188 | -0.139 |
| TGTTTGC | 0.0876 | -0.0186 | -0.429 | -0.68 | 0.0523 | -0.999 | 0.137 | 0.0149 | 0.152 | -0.0442 |
| CTCGCAA | 0.122 | 0.0423 | -0.0607 | -0.312 | 0.0291 | -0.85 | 0.0969 | 0.0778 | 0.101 | 0.0205 |
